PubChem BioAssay AID624296 (National Center for Advancing Translational Sciences (NCATS), 2012)
Among all 350,000 compounds or so, about 9,900 (2.8%) were called active. The inconclusive results got no clear call from the source; some entries with a clear call stand among them for comparison. Calls come from the whole dose curve; as a rule, active = well fitted activation curve with a large enough effect; inconclusive = small, poorly fitted or top-dose-only effect; inactive = no such curve, though single readings can be large or run the other way. Potencies of inconclusive entries are left out as doubtful fits.

Test: A quantitative high throughput screen for small molecules that induce DNA re-replication in MCF 10a normal breast cells. For activity, positive = re-replication: % of control where 0% means no effect. Note: nearly all actives have a fitted effect of over 50% in size.
Conditions: MCF 10A DNA re-replication, Hoechst nuclear intensity, 48 h; activity, positive = re-replication: at 46.1 µM (top of the series)
Potency is the fitted concentration of half-maximal effect; tags give direction and shape of the fitted curve.

Row | Compound | Potency | activity, positive = re-replication
1 | COc1ccc(Cc2c(C)nc(N)nc2Cl)cc1 | inconclusive [activator, single point] | 
2 | O=C(CSc1nnc(-c2ccccc2F)n1C1CCCCC1)N1CCCC1 |  | inactive: 16.1%
3 | C[C@@H]1COC(=O)[C@H](CC(=O)OC(C)(C)C)C/C=C\C[C@H](CC(=O)N(CCO)Cc2ccccc2)C(=O)N1 | inconclusive [activator, full curve, poor fit] | 
4 | CCCOc1cc(C)c(S(=O)(=O)NCc2cccs2)cc1C | inconclusive [activator, single point] | 
5 | Cc1cc(=O)n(-c2ccc(C(=O)O)cc2)[nH]1 |  | inactive: -1.94%
6 | Cc1cc(C[n+]2cc(Br)ccc2N)c2ncccc2c1 |  | inactive: 8.16%
7 | CCCCN(CCCC)CCNC(=O)CSCc1ccc(C)cc1 | inconclusive [activator, partial curve, poor fit] | 
8 | CCCn1c(C)cc(C(=O)COC(=O)c2c(C)nn(-c3ccccc3)c2C)c1C | active: 9.2 µM | 
9 | Cc1ccc(NC(=O)c2ccccc2N2C(=O)C3C4C=CC(C5CC45)C3C2=O)cc1C (stereo not given) | inconclusive [activator, single point] | 
10 | CCn1c(=O)n(CC)c2cc(N3CCCC3)c(NC(=O)c3cccc(OC)c3)cc21 | inconclusive [activator, partial curve, poor fit] | 
11 | Cc1ccc(CNC(=O)CCn2cc(-c3ccc(F)cc3)nc2-c2ccncc2)cc1 | inconclusive [activator, single point] | 
12 | CCC(C)NC(=O)Nc1ccc2c(c1)N(C)C(=O)c1ccccc1S2 (stereo not given) | inconclusive [activator, partial curve, poor fit] | 
13 | COc1cccc(-c2cc(C(=O)NCC3CCCO3)c3cc(C)cc(C)c3n2)c1 (stereo not given) | inconclusive [activator, partial curve, poor fit] | 
14 | CN1CCN(c2ccccc2NS(=O)(=O)c2ccc3c(c2)CCN3C(=O)C2CCC2)CC1 |  | inactive: 17.8%
15 | C=CCn1c(SCc2nc3ccccc3c(=O)[nH]2)nc2ccccc2c1=O | inconclusive [activator, single point] | 
16 | COc1cc(/C=C2\SC(=S)NC2=O)ccc1OS(=O)(=O)c1ccccc1 | inconclusive [activator, partial curve] | 
17 | Cc1ccc(N2C(=O)N(CC(=O)NCc3ccc(Cl)cc3)C(=O)C2C)cc1 (stereo not given) | inconclusive [activator, single point] | 
18 | CC(C)N(Cc1nccn1C)C(=O)c1cc(COc2cccc(C(F)(F)F)c2)on1 |  | inactive: 10.5%
19 | CCC(C(=O)NCCc1ccc(C)cc1)n1nc(C)c2c(C)n(-c3ccccc3)nc2c1=O (stereo not given) |  | inactive: -1.82%
20 | Cc1cc(N2C(=O)C(O)=C(C(=O)c3cc4ccccc4o3)C2c2ccc(OC(C)C)cc2)no1 (stereo not given) | inconclusive [activator, single point] | 

Row | Compound | Potency | activity, positive = re-replication
21 | COc1ccccc1C1CCN(Cc2ccc(Cl)cc2Cl)CC1 | inconclusive [activator, single point] | 
22 | COc1ccc(COc2cccc3ccc(C)nc23)cc1F |  | inactive: 9.65%
23 | CCOC(=O)c1c(NC(=O)CCS(=O)(=O)c2ccccc2)sc2c1CCN(C(C)C)C2 | inconclusive [activator, single point] | 
24 | CCOC(=O)C1(Cc2ccc(Cl)cc2)CCN(C(=O)c2sc(C)nc2C)CC1 | inconclusive [activator, partial curve, poor fit] | 
25 | CCN1C(=O)/C(=C2/Sc3ccccc3N2CC)S/C1=N\c1ncn[nH]1 | inconclusive [activator, single point] | 
26 | O=C(CSc1n[nH]c(-c2ccncc2)n1)c1ccccc1 | inconclusive [activator, single point] | 
27 | O=C(c1ccc(Cl)cc1)N1CCc2c([nH]c3ccccc23)C1C(F)(F)F (stereo not given) | inconclusive [activator, partial curve, poor fit] | 
28 | Cc1ccc(CN2C(=O)CCC2C(=O)NC2CCCC2)cc1 (stereo not given) | inconclusive [activator, partial curve, poor fit] | 
29 | CCc1cc(C(=O)N=Nc2c(O)[nH]c3c(Br)cc(Br)cc23)c2ccccc2n1 | inconclusive [activator, single point] | 
30 | O=C(Cc1cccs1)Nc1nc2c(s1)CCCC2 | inconclusive [activator, partial curve, poor fit] | 
31 | COc1ccccc1/C=C/c1nc2ccccc2c(=O)o1 |  | inactive: 4.57%
32 | Cn1cccc1/C=N/NC(=O)c1cccc(OC(F)(F)C(F)F)c1 | inconclusive [activator, partial curve, poor fit] | 
33 | COc1ccc(-c2cc(C(=O)Nc3ccc(Br)cc3)no2)cc1 |  | inactive: 13%
34 | Cn1cc(/C=C2\SC(=O)N(c3ccc(O)cc3)C2=O)c2ccccc21 | inconclusive [activator, partial curve] | 
35 | COc1ccc(S(=O)(=O)Nc2cc(C)c(O)c(S(=O)(=O)c3ccccc3)c2)cc1 |  | inactive: -0.656%
36 | COCCN(C(=O)COC(=O)Cc1c[nH]c2ccccc12)c1c(N)n(Cc2ccccc2)c(=O)[nH]c1=O |  | inactive: 3.42%
37 | COc1ccc(CNC(=O)C2CCN(C(=O)c3ccc(-c4ccccc4)cc3)CC2)cc1 | inconclusive [activator, partial curve, poor fit] | 
38 | CC(C)C[C@H](NC(=O)[C@@H](Cc1c[nH]c2ccccc12)NC(=O)[C@@H](Cc1ccc(O)cc1)NC(=O)[C@@H](CO)NC(=O)[C@@H](Cc1c[nH]c2ccccc12)NC(=O)C(Cc1cnc[nH]1)NC(=O)C1CCC(=O)N1)C(=O)N[C@@H](CCCN=C(N)N)C(=O)N1CCC[C@@H]1C(=O)NCC(N)=O (stereo not given in full) |  | inactive: -2.91%
39 | C#Cc1ccc([C@@H]2C=C(C(=O)N3CCN(Cc4ccc5c(c4)OCO5)CC3)O[C@H](OCC)[C@H]2CCCO)cc1 | inconclusive [activator, full curve, poor fit] | 
40 | Cc1ccc2oc(Nc3nc(-c4ccccc4)cc(=O)[nH]3)nc2c1 | active: 20.6 µM | 
